Test results published in the supplement of paper PMC6609913.
Counter-ions that a name gives are not always drawn. ± gives the standard deviation of the averaged measurements. Over roughly 1,300 compounds, “normalised cell viability” has its median near 1; the lowest 2% begin near 0.14. The list shows a part of the results.

System: V-C8 (BRCA2-deficient hamster cells)
Assay: normalised cell viability (fraction of plate median); higher = more viable cells (less toxic)
Settings: 5 µM
Procedure, shortened: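 Hamster V-C8 cells with and without restored BRCA2 were exposed in 96-well plates to library drugs at 5 μM for 3 days (screen 1) or 6 days (screen 2). Cell viability was scored by resazurin assay, then median-plate normalised, averaging triplicate wells.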

| SMILES | normalised cell viability (treatment time: 3 days) | normalised cell viability (treatment time: 6 days) |
| --- | --- | --- |
| CN1CCC(=C2c3ccccc3CCc3cccnc32)CC1 [Azatadine maleate] | 1.14 ± 0.033 | 1.07 ± 0.084 |
| Nc1nc2ccc(OC(F)(F)F)cc2s1 [Riluzole hydrochloride] | 0.972 ± 0.052 | 0.949 ± 0.046 |
| CC(C)(C)NCC(O)COc1cccc2c1CCC(=O)N2 (stereo unspecified) [Carteolol hydrochloride] | 1.07 ± 0.022 | 1 ± 0.031 |
| C=C1c2c(Cl)ccc(O)c2C(=O)C2=C(O)[C@]3(O)C(=O)C(C(N)=O)=C(O)[C@@H](N(C)C)[C@@H]3[C@@H](O)[C@H]12.O=C(O)c1cc(S(=O)(=O)O)ccc1O [Meclocycline sulfosalicylate] | 0.934 ± 0.057 | 0.862 ± 0.05 |
| CCOC(=O)O[C@]1(C(=O)COC(=O)CC)CC[C@H]2[C@@H]3CCC4=CC(=O)C=C[C@]4(C)[C@H]3[C@@H](O)C[C@@]21C [Prednicarbate] | 0.835 ± 0.12 | 1.01 ± 0.11 |
| CC(=O)NCCCS(=O)(=O)O [Acamprosate calcium] | 1.09 ± 0.036 | 1.07 ± 0.052 |
| C[C@H]1c2cccc(O)c2C(=O)C2=C(O)[C@]3(O)C(=O)C(C(N)=O)=C(O)[C@@H](N(C)C)[C@@H]3[C@@H](O)[C@@H]21 [Doxycycline hydrochloride] | 0.871 ± 0.03 | 0.887 ± 0.075 |
| C[C@](N)(Cc1ccc(O)c(O)c1)C(=O)O [Methyldopa (L,-)] | 1.06 ± 0.034 | 1.04 ± 0.042 |
| c1cnc(N2CCN(Cc3ccc4c(c3)OCO4)CC2)nc1 [Piribedil hydrochloride] | 1.06 ± 0.062 | 1.12 ± 0.1 |
| Clc1ccc(C(Cn2ccnc2)OCc2ccsc2Cl)c(Cl)c1 (stereo unspecified) [Tioconazole] | 0.97 ± 0.046 | 0.966 ± 0.059 |
| CCCC1C(=O)N2C(N(C)C)=Nc3ccc(C)cc3N2C1=O (stereo unspecified) [Azapropazone] | 1.13 ± 0.12 | 1.01 ± 0.012 |
| CCOC(=O)O[C@]1(C(=O)OCCl)CC[C@H]2[C@@H]3CCC4=CC(=O)C=C[C@]4(C)[C@H]3[C@@H](O)C[C@@]21C [Loteprednol etabonate] | 0.934 ± 0.034 | 0.947 ± 0.039 |
| Cc1ccc(NC(=O)c2ccc(CN3CCN(C)CC3)cc2)cc1Nc1nccc(-c2cccnc2)n1 [Imatinib] | 0.852 ± 0.041 | 0.851 ± 0.078 |
| O=C(O)c1cn(C2CC2)c2cc(N3CCNCC3)c(F)cc2c1=O [Ciprofloxacin hydrochloride hydrate] | 1.1 ± 0.11 | 1.07 ± 0.046 |
| COc1ccc(-c2cc(=S)ss2)cc1 [Anethole-trithione] | 0.969 ± 0.013 | 1.03 ± 0.056 |
| C#CCN[C@@H]1CCc2ccccc21 [Rasagiline] | 1.08 ± 0.055 | 1.06 ± 0.038 |
| COc1cc(C(=O)NCc2ccc(OCCN(C)C)cc2)cc(OC)c1OC [Trimethobenzamide hydrochloride] | 0.981 ± 0.016 | 0.985 ± 0.032 |
| CC(C)NCC(O)COc1ccc(CCOCC2CC2)cc1 (stereo unspecified) [Betaxolol hydrochloride] | 0.1577 ± 0.00096 | 0.136 ± 0.014 |
| CCc1nc(N)nc(N)c1-c1ccc(Cl)cc1 [Pyrimethamine] | 0.424 ± 0.0062 | 0.393 ± 0.013 |
| CC(=O)[C@@]1(O)CC[C@H]2[C@@H]3C[C@H](C)C4=CC(=O)C=C[C@]4(C)[C@@]3(F)[C@@H](O)C[C@@]21C [Fluorometholone] | 0.861 ± 0.029 | 0.903 ± 0.044 |
| C1CCC(C(CC2CCCCN2)C2CCCCC2)CC1 (stereo unspecified) [Perhexiline maleate] | 0.126 ± 0.011 | 0.109 ± 0.0083 |

| SMILES | normalised cell viability (treatment time: 3 days) | normalised cell viability (treatment time: 6 days) |
| --- | --- | --- |
| Cn1cnc2c1c(=O)[nH]c(=O)n2C [Theobromine] | 0.928 ± 0.036 | 1.06 ± 0.051 |
| CCN(CC)CCNC(=O)c1cc(Cl)c(N)cc1OC [Metoclopramide monohydrochloride] | 1.02 ± 0.038 | 0.992 ± 0.045 |
| CCOc1ccc2ccccc2c1C(=O)N[C@@H]1C(=O)N2[C@@H]1SC(C)(C)[C@@H]2C(=O)O [Nafcillin sodium salt monohydrate] | 0.999 ± 0.021 | 1.03 ± 0.034 |
| CC(C)(CO)C(O)C(=O)NCCCO (stereo unspecified) [Panthenol (D)] | 1.06 ± 0.036 | 1.02 ± 0.04 |
| CN(C)C/C=C(/c1ccc(Br)cc1)c1cccnc1 [Zimelidine dihydrochloride monohydrate] | 1.11 ± 0.082 | 1.05 ± 0.028 |
| C=C1/C(=C\C=C2/CCC[C@]3(C)[C@@H]([C@H](C)CCCC(C)C)CC[C@@H]23)C[C@@H](O)C[C@@H]1O [Alfacalcidol] | 1.04 ± 0.058 | 0.966 ± 0.094 |
| Cc1ccc2c(c1)c1c3n2CCNC3CCC1 (stereo unspecified) [Pirlindole mesylate] | 0.904 ± 0.084 | 0.9725 ± 0.0077 |
| CCC[C@@H]1C[C@@H](C(=O)N[C@@H]([C@H]2O[C@H](SC)[C@H](O)[C@@H](O)[C@H]2O)[C@H](C)Cl)N(C)C1 [Clindamycin hydrochloride] | 1.17 ± 0.044 | 1.09 ± 0.04 |
| O=C(N[C@H](CO)[C@H](O)c1ccc([N+](=O)[O-])cc1)C(Cl)Cl [Chloramphenicol] | 0.748 ± 0.028 | 0.741 ± 0.016 |
| CN(C)CCC=C1c2ccccc2COc2ccccc21 [Doxepin hydrochloride] | 1.04 ± 0.098 | 1.04 ± 0.024 |
| CC(C)[N+](C)(CCOC(=O)C1c2ccccc2Oc2ccccc21)C(C)C [Propantheline bromide] | 1.03 ± 0.012 | 0.901 ± 0.067 |
| Nc1ccccc1S(N)(=O)=O [2-Aminobenzenesulfonamide] | 1.01 ± 0.054 | 1.008 ± 0.0056 |
| COc1ccccc1Oc1c(NS(=O)(=O)c2ccc(C(C)(C)C)cc2)nc(-c2ncccn2)nc1OCCO [Bosentan] | 1.13 ± 0.13 | 1.07 ± 0.046 |
| NS(=O)(=O)c1cc2c(cc1Cl)NC(C(Cl)Cl)NS2(=O)=O (stereo unspecified) [Trichlormethiazide] | 1.02 ± 0.021 | 0.974 ± 0.052 |
| CN[C@@H]1[C@H](O)[C@H](NC)[C@H]2O[C@@]3(O)C(=O)C[C@@H](C)O[C@H]3O[C@@H]2[C@H]1O [Spectinomycin dihydrochloride] | 1.01 ± 0.027 | 1.08 ± 0.031 |
| N#Cc1ccc(C2CCCc3cncn32)cc1 (stereo unspecified) [Fadrozole hydrochloride] | 1.01 ± 0.087 | 0.97 ± 0.079 |
| Cc1onc(-c2ccccc2Cl)c1C(=O)N[C@@H]1C(=O)N2[C@@H]1SC(C)(C)[C@@H]2C(=O)O [Cloxacillin sodium salt] | 1.02 ± 0.046 | 1 ± 0.038 |
| N[C@@H](C(=O)N[C@@H]1C(=O)N2C(C(=O)O)=C(Cl)CC[C@H]12)c1ccccc1 [Loracarbef] | 1.05 ± 0.1 | 1.06 ± 0.033 |
| C#Cc1cccc(Nc2ncnc3cc(OCCOC)c(OCCOC)cc23)c1 [Erlotinib] | 0.923 ± 0.064 | 0.782 ± 0.15 |
| CN[C@@H]1[C@@H](O[C@H]2O[C@H](CO)[C@@H](N)[C@H](O)[C@H]2O)OC2C[C@@H](N)[C@@H](O[C@H]3[C@H](O)[C@@H](O)[C@H](N)C[C@@H]3N)OC2[C@@H]1O (stereo partly specified) [Apramycin] | 0.995 ± 0.057 | 1.03 ± 0.019 |
| Cc1c(-c2ccccc2)oc2c(C(=O)OCCN3CCCCC3)cccc2c1=O [Flavoxate hydrochloride] | 0.94 ± 0.044 | 1.02 ± 0.072 |

| SMILES | normalised cell viability (treatment time: 3 days) | normalised cell viability (treatment time: 6 days) |
| --- | --- | --- |
| CCCN(CCC)S(=O)(=O)c1ccc(C(=O)O)cc1 [Probenecid] | 1 ± 0.029 | 1.07 ± 0.071 |
| C[C@]12CC[C@@H]3c4ccc(O)cc4CC[C@H]3[C@@H]1CC[C@@H]2O [Estradiol-17 beta] | 1 ± 0.038 | 1.1 ± 0.042 |
| COc1ccc2[nH]c([S+]([O-])Cc3ncc(C)c(OC)c3C)nc2n1 (stereo unspecified) [Tenatoprazole] | 1 ± 0.16 | 0.978 ± 0.072 |
| CN(C)CCOC(c1ccccc1)c1ccccc1 [Diphenhydramine hydrochloride] | 1.06 ± 0.099 | 1 ± 0.028 |
| NC(Cc1cc(I)c(Oc2cc(I)c(O)c(I)c2)c(I)c1)C(=O)O (stereo unspecified) [Thyroxine (L)] | 0.87 ± 0.017 | 0.875 ± 0.044 |
| CN(C)CC/C=C1/c2ccccc2Sc2ccc(Cl)cc21 [Chlorprothixene hydrochloride] | 0.971 ± 0.045 | 0.948 ± 0.064 |
| CC(=O)[C@H]1CC[C@H]2[C@@H]3CCC4=CC(=O)CC[C@]4(C)[C@H]3CC[C@]12C [Progesterone] | 0.956 ± 0.063 | 0.989 ± 0.18 |
| N=C(N)NC(=O)Cc1c(Cl)cccc1Cl [Guanfacine hydrochloride] | 1.1 ± 0.039 | 0.966 ± 0.034 |
| CC(=O)O[C@@]12CO[C@@H]1C[C@H](O)[C@@]1(C)C(=O)[C@H](O)C3=C(C)[C@@H](OC(=O)[C@H](O)[C@@H](NC(=O)OC(C)(C)C)c4ccccc4)C[C@@](O)([C@@H](OC(=O)c4ccccc4)[C@H]21)C3(C)C [Docetaxel] | 0.233 ± 0.014 | 0.238 ± 0.0079 |
| Nc1ccn([C@@H]2O[C@H](CO)[C@@H](O)C2(F)F)c(=O)n1 [Gemcitabine] | 0.176 ± 0.02 | 0.196 ± 0.02 |
| CN1C(=O)CC(c2ccccc2)C1=O (stereo unspecified) [Phensuximide] | 1.2 ± 0.15 | 1.05 ± 0.069 |
| CC1CNc2c(cccc2S(=O)(=O)N[C@@H](CCCNC(=N)N)C(=O)N2CC[C@@H](C)C[C@@H]2C(=O)O)C1 (stereo partly specified) [Argatroban] | 1.13 ± 0.092 | 1.19 ± 0.1 |
| CN(C)CCN(Cc1ccccc1)c1ccccn1 [Tripelennamine hydrochloride] | 1.03 ± 0.027 | 1 ± 0.12 |
| Clc1ccc(CSC(Cn2ccnc2)c2ccc(Cl)cc2Cl)cc1 (stereo unspecified) [Sulconazole nitrate] | 0.983 ± 0.067 | 0.829 ± 0.043 |
| CC(=O)O[C@]1(C(C)=O)CC[C@H]2[C@@H]3C=C(Cl)C4=CC(=O)[C@@H]5C[C@@H]5[C@]4(C)[C@H]3CC[C@@]21C [Cyproterone acetate] | 0.903 ± 0.021 | 0.978 ± 0.02 |
| Clc1ccc(CO/N=C(\Cn2ccnc2)c2ccc(Cl)cc2Cl)c(Cl)c1 [Oxiconazole Nitrate] | 0.807 ± 0.043 | 0.898 ± 0.043 |
| C#C[C@]1(OC(C)=O)CC[C@H]2[C@@H]3CCC4=CC(=NO)CC[C@@H]4[C@H]3CC[C@@]21CC (mixture of isomers) [Norgestimate] | 0.909 ± 0.022 | 0.907 ± 0.069 |
| O=C(O)COCCN1CCN(C(c2ccccc2)c2ccc(Cl)cc2)CC1 (stereo unspecified) [Cetirizine dihydrochloride] | 1.08 ± 0.046 | 1.03 ± 0.029 |
| N[C@@H]1CONC1=O [D-cycloserine] | 1.11 ± 0.12 | 0.984 ± 0.042 |
| Clc1ccc(Cn2c(CN3CCCC3)nc3ccccc32)cc1 [Clemizole hydrochloride] | 1.16 ± 0.017 | 1.12 ± 0.15 |
| COc1cc2nc(N(C)CCCNC(=O)C3CCCO3)nc(N)c2cc1OC (stereo unspecified) [Alfuzosin hydrochloride] | 0.987 ± 0.056 | 1.08 ± 0.08 |
